Data published in ChEMBL document CHEMBL5606460, “ASAP - DENV-2 NS2B-NS3 protease fluorescence single point” (2024).
Screen size: about 2,000 compounds; about 110 (5.5%) showed an effect of 50% or more. Some of the results follow.

Target: Genome polyprotein (dengue virus type 2) (UniProt P29990)
[1] = Thailand/16681/1984, Concentration 25.0 uM, Number of replicates 1.0

## CCOc1cc(CNC(=O)[C@]2(c3ccc(F)cc3)CCCNC2)ccc1O
Thailand/16681/1984, Concentration 49.5 uM, Number of replicates 2.0, Standard deviation 2.112880352851639 %
  inhibition: -2.74%
Thailand/16681/1984, Concentration 99.01 uM, Number of replicates 2.0, Standard deviation 2.8000385459492225 %
  inhibition: -1.9%
Thailand/16681/1984, Concentration 198.0 uM, Number of replicates 2.0, Standard deviation 3.3912044677243944 %
  inhibition: -1.14%

## Cc1cc(CO)c2cccc(NCc3sccc3C)c2n1
Thailand/16681/1984, Concentration 49.95 uM, Number of replicates 2.0, Standard deviation 0.6063286087751786 %
  inhibition: 9.29%
Thailand/16681/1984, Concentration 99.9 uM, Number of replicates 2.0, Standard deviation 2.2830792737948777 %
  inhibition: 18.4%

## CC1(C)CC(=O)CC(C)(C)N1C(=O)C1CCN(c2ccc(C=O)cc2)CC1
[1]
  inhibition: 14%

## CNC(=O)c1cc(Cl)ccc1NC(=O)[C@H]1CCN(c2ccc(Cl)c(Cl)c2)C1=O
Thailand/16681/1984, Concentration 49.5 uM, Number of replicates 2.0, Standard deviation 0.6759059749961148 %
  inhibition: -2.34%
Thailand/16681/1984, Concentration 99.01 uM, Number of replicates 2.0, Standard deviation 2.6252938134395687 %
  inhibition: -1.06%
Thailand/16681/1984, Concentration 198.0 uM, Number of replicates 2.0, Standard deviation 1.415964468900783 %
  inhibition: 0.175%

## OC1(c2ccccc2)CCN(Cc2c[nH]c3ccccc23)CC1
Thailand/16681/1984, Concentration 49.5 uM, Number of replicates 2.0, Standard deviation 1.5066695023711998 %
  inhibition: -2.62%
Thailand/16681/1984, Concentration 99.01 uM, Number of replicates 2.0, Standard deviation 2.191923816954425 %
  inhibition: -1.95%
Thailand/16681/1984, Concentration 198.0 uM, Number of replicates 2.0, Standard deviation 2.125623199617817 %
  inhibition: -1.95%

## O=Cc1ccc(N2CCC(C(=O)Nc3ncc(F)cc3Br)CC2)cc1
[1]
  inhibition: 10.9%

## O=Cc1ccc(N2CCC(C(=O)NCc3cccc(F)c3Cl)CC2)cc1
[1]
  inhibition: 13.2%

## C[C@@H](NC(=O)C1CCN(c2ccc(C=O)cc2)CC1)c1ccc2ccccc2c1
[1]
  inhibition: 1.94%

## FC(F)(F)c1ccccc1C1CCN(Cc2c[nH]c3ccccc23)CC1
Thailand/16681/1984, Concentration 49.5 uM, Number of replicates 2.0, Standard deviation 0.24287441770451368 %
  inhibition: 3.33%
Thailand/16681/1984, Concentration 99.01 uM, Number of replicates 2.0, Standard deviation 0.2288546900158499 %
  inhibition: 5.47%
Thailand/16681/1984, Concentration 198.0 uM, Number of replicates 2.0, Standard deviation 0.3608066946346046 %
  inhibition: 5.84%

## O=S(=O)(NC1CCCCC1)c1ccc(Oc2ccccc2Cl)cc1
Thailand/16681/1984, Concentration 49.5 uM, Number of replicates 2.0, Standard deviation 1.7919780415060578 %
  inhibition: 0.164%
Thailand/16681/1984, Concentration 99.01 uM, Number of replicates 2.0, Standard deviation 2.26588512977007 %
  inhibition: 2.51%
Thailand/16681/1984, Concentration 198.0 uM, Number of replicates 2.0, Standard deviation 2.2194744531827233 %
  inhibition: 5.38%

## CCN(CC)CCC[C@H](C)NC(=O)C1CCN(c2ccc(C=O)cc2)CC1
[1]
  inhibition: 14%

## O=Cc1ccc(N2CCC(C(=O)NCCN3CCc4ccccc43)CC2)cc1
[1]
  inhibition: 25.9%

## CCc1ccc(NS(=O)(=O)c2ccc(Oc3ccccc3Cl)cc2)c(C(=O)NC)c1
Thailand/16681/1984, Concentration 49.5 uM, Number of replicates 2.0, Standard deviation 2.280534278494396 %
  inhibition: 20.1%
Thailand/16681/1984, Concentration 99.01 uM, Number of replicates 2.0, Standard deviation 1.9533776277108892 %
  inhibition: 35.5%
Thailand/16681/1984, Concentration 198.0 uM, Number of replicates 2.0, Standard deviation 2.0141203401343657 %
  inhibition: 57.1%

## CCS(=O)(=O)N1CCN(C(=O)C2CCN(c3ccc(C=O)cc3)CC2)CC1
[1]
  inhibition: 12.7%

## Cc1cc(CO)c2cccc(Cc3cccc(NC(=O)[C@@H]4CC(=O)CCN4)c3)c2n1
Thailand/16681/1984, Concentration 49.95 uM, Number of replicates 2.0, Standard deviation 0.827370284601473 %
  inhibition: 15.8%
Thailand/16681/1984, Concentration 99.9 uM, Number of replicates 2.0, Standard deviation 0.7401310286309556 %
  inhibition: 32.9%

## Cc1cnccc1NC(=O)c1cccc2c1NC(=O)CO2
Thailand/16681/1984, Concentration 49.5 uM, Number of replicates 2.0, Standard deviation 0.7653388901379272 %
  inhibition: -4.76%
Thailand/16681/1984, Concentration 99.01 uM, Number of replicates 2.0, Standard deviation 0.7790757281793859 %
  inhibition: -4.6%
Thailand/16681/1984, Concentration 198.0 uM, Number of replicates 2.0, Standard deviation 1.0067147344967875 %
  inhibition: -4.39%

## O=Cc1ccc(N2CCC(C(=O)N3CCC(NC(=O)c4ccccc4)CC3)CC2)cc1
[1]
  inhibition: 12.4%

## O=Cc1ccc(N2CCC(C(=O)N3CCC(n4c(=O)[nH]c5ccccc54)CC3)CC2)cc1
[1]
  inhibition: 14.8%

## O=C1[C@@H]2CCCN2[C@@H](c2ccc([N+](=O)[O-])cc2)N1c1ccc([N+](=O)[O-])cc1
Thailand/16681/1984, Concentration 49.5 uM, Number of replicates 2.0, Standard deviation 0.6893492180908466 %
  inhibition: 1.35%
Thailand/16681/1984, Concentration 99.01 uM, Number of replicates 2.0, Standard deviation 0.7236546454362888 %
  inhibition: 5.8%
Thailand/16681/1984, Concentration 198.0 uM, Number of replicates 2.0, Standard deviation 0.5762350845888241 %
  inhibition: 14.8%

## O[C@H]1CCCN(Cc2c[nH]c3ccccc23)C1
Thailand/16681/1984, Concentration 49.5 uM, Number of replicates 2.0, Standard deviation 1.322977815786229 %
  inhibition: -1.72%
Thailand/16681/1984, Concentration 99.01 uM, Number of replicates 2.0, Standard deviation 1.2713215002863676 %
  inhibition: -1.49%
Thailand/16681/1984, Concentration 198.0 uM, Number of replicates 2.0, Standard deviation 2.2915353645990124 %
  inhibition: 0.512%

## O=Cc1ccc(N2CCC(C(=O)NCCCc3nnc4ccccn34)CC2)cc1
[1]
  inhibition: 13.4%

## C=CCN(Cc1cccc(OC)c1)C(=O)C1CCN(c2ccc(C=O)cc2)CC1
[1]
  inhibition: 13.3%

## CNC(=O)CC[C@H]1CCCN(C(=O)C2CCN(c3ccc(C=O)cc3)CC2)C1
[1]
  inhibition: 13.1%

## O[C@@H]1CN(Cc2c[nH]c3ccccc23)CC[C@@H]1c1ccccc1
Thailand/16681/1984, Concentration 49.5 uM, Number of replicates 2.0, Standard deviation 0.6047610831853614 %
  inhibition: -4.77%
Thailand/16681/1984, Concentration 99.01 uM, Number of replicates 2.0, Standard deviation 0.15342767839638968 %
  inhibition: -1.95%
Thailand/16681/1984, Concentration 198.0 uM, Number of replicates 2.0, Standard deviation 0.5453076639312573 %
  inhibition: 0.64%
